# Publication PMC12136788
# The list shows a part of the results.
# B1: 90603600_90606004_1788_CDS_ENSMUSG00000008200_ENSMUST00000013759|mouse|control|control (ssRNA)
# RNA: GGGAGUUCUACAGUCCGACGAUCCAGUUCUCCAAUCUGAAAUUUCAGGUCCUGCUCUUCCUCCACUUUAGGUGCUAGCUGGACUUUGAUCUUCUCAGAAGACUCUUCUACUUCCGUUUCUUUGUCUGAAAUUUCAUCUAUUUUCAACAGAGGAUUGAGCAUCA
# B2: chr7:151640622:151640623:-_ENSMUSG00000031078_ENSMUST00000033407|mus_hu|FALSE|FALSE (ssRNA)
# RNA: GGGAGUUCUACAGUCCGACGAUCACCUUUGGAGUAAUCUCUCUGUGACUCGUGCUUCUCCGUCUUGCCCUGGUAGUCGAAGCCCACCGCGCUCUUGUCUACUCGGUCGGCCUGCACGCCAUACUUGCCGCCAAAACCACUGGACAACAGAGGAUUGAGCAUCA
# B3: chr19:36179134:36179135:+_ENSMUSG00000024800_ENSMUST00000025714|mus_mus|motif|central (ssRNA)
# RNA: GGGAGUUCUACAGUCCGACGAUCUACUGUUAUUCAUUAUUCACAUGAAGGAUAAAAUAGUUUUUCUCUUAAAGUAUAUCGGAAUUAAUUAAGCUGUUAGUCUUUAAAAAAUGCUUCACUGGGUUUUAUUUGCUGUUUUAAUGGCAACAGAGGAUUGAGCAUCA
# B4: chr16:33771563:33771564:+_ENSMUSG00000075254_ENSMUST00000152782|mus_hu|motif|central (ssRNA)
# RNA: GGGAGUUCUACAGUCCGACGAUCCAGACUUAGAGUGGAUAUAAGUAUAAAAAUAACCAAAUUCUUACAAAUAAUACUUUGCUGCGGCAGUACUGAAUAAUUAGUGGAGGUUGCAAUUAUAAUACAACUUUAAAUAACAUUCUCCAACAGAGGAUUGAGCAUCA
# B5: chr1:58468927:58468928:-_ENSMUSG00000026034_ENSMUST00000148330|mus_mus|mus_mus_mus_hu_False|28_28 (ssRNA)
# RNA: GGGAGUUCUACAGUCCGACGAUCAAUUACUGAAAAAGAUGUUCAUUACCUUAGCUAUGUACUUAAUGAACCAAAUUACCCAAACAAAAUAAACAUGGCAAUAUAAAAAGCUAUACAAUUUACAAAGCUGUACAAAAUAACUUACAACAGAGGAUUGAGCAUCA
# B6: 101291317_101296269_2030_3pUTR_ENSMUSG00000028528_ENSMUST00000094953|mouse|control|control (ssRNA)
# RNA: GGGAGUUCUACAGUCCGACGAUCGCACCUUCUCCCACUCUUAGGGUUGGCGAUGCAGAGGCGGAGGUGGCGGUUCGGCGCGGUGUGGACUGUGCAGACACAGGUCCACUAGGAUGAAACACAUCUUCUACCCCAGCCUGUCCUCAACAGAGGAUUGAGCAUCA
# Molecular target: T1, UNK ZnF1-3 (human, UniProt Q9C0B0 31-174)
# T1 sequence: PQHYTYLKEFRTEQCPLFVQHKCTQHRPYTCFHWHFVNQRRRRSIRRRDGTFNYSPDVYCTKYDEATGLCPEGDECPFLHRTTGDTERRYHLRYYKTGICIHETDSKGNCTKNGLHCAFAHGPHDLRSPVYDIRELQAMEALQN
# Assay: nsRBNS (natural sequence RNA bind-n-seq); RBNS binding buffer (assumed for nsRBNS): 25 mM Tris pH 7.5, 150 mM KCl, 3 mM MgCl2, 0.01% Triton X-100, 500 ug/ml BSA, 20 U/ml SUPERase-In, 4 C; UNK is unkempt and MSI1 is Musashi-1; names of the RNAs are library labels; protein concentration not given here; high values mean tight binding
row,Binder,binding signal [enrichment R]
1,B1,0.293
2,B2,0.581
3,B3,1.96
4,B4,1.8
5,B5,0.753
6,B6,0.893
